# Results: the RNAGym collection of RNA variant scans (doi:10.1093/nar/gkz1192)
# The source gives no read counts; variants with many changes may rest on few reads.
# B1: CPEB3 Ribozyme (parent)
# chain: UAACAGGGGGCCACAGCAGAAGCGUUCACGUCGCAGCCCCUGUCAGAUUCUGGUGAAUCUGCGAAUUCUGCUGUAUAUCUC
# Variants of: B1
# Test: self-cleavage, relative activity (ratio to wild type); higher = more cleavage; in vitro, sequencing
# Summary of the method: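 For each CPEB3 ribozyme variant, relative activity is its cleaved/total read fraction divided by the unmutated ribozyme's. Barcoded error-prone PCR libraries were transcribed by T7 RNA polymerase (5 hours, 37°C) and held in DNase I for 15 min before an EDTA stop, with cleavage occurring throughout. Template-switching reverse transcription and Illumina sequencing were used to read the RNAs. A 5-read minimum applied, and results are the mean of three batches.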
row,Variant,self-cleavage
1,G9C C14U A28G U41A A75G,0.06
2,G9C C14U A75G C81A,0.04
3,G9C C23U A28G A35C A65U,0.12
4,G9C C40U U41C,0.07
5,G9C C40U U67C,0.14
6,G9C C44A A64U A77G,0.04
7,G9C G10C A28U U31C U54A,0.15
8,G9C G22U G46C A47G G63U U72A,0.12
9,G9C G22U U31C A45U U78A,0.06
10,G9C G30C G55U A57G A75G U78C,0.04
11,G9C G30U U76C,0.08
12,G9C U25A C40U U48A U51G,0.23
13,G9C U25A U72A,0.17
14,G9C U26A C27U U54C A65U,0.04
15,G9C U26C U54C A56G U67A,0.05
16,G9C U26G U31C A35U,0.22
17,G9C U41A G46A,0.19
18,G9C U43A A45G,0.08
19,G9C U43C U48C U80A,0.05
20,G9C U51C G53A U67C,0.05
21,G9C U54A A64G A65C,0.16
22,G9C U54A A75G U80G,0.18
23,G9C U54C A64G C71U,0.07
24,G9C U54C U67A,0.14

row,Variant,self-cleavage
1,G9C U58C U74C,0.23
2,G9C U60C U66C U67G,0.19
3,G9C U60C U67C,0.11
4,G9C U67C A75G,0.05
5,G9U A13G A28U U78C,0.22
6,G9U A13G A47U G52C G53A,0.07
7,G9U A13G A64G,0.4
8,G9U A13G C17A U25C U54A U69C A75G,0.06
9,G9U A13G U26C A64U,0.16
10,G9U A13U A15U A28G U66C U69A,0.11
11,G9U A13U A20G,0.48
12,G9U A13U A21U,0.1
13,G9U A13U A28U A57G,0.19
14,G9U A13U G30C U69C U80A,0.19
15,G9U A13U U26A,0.16
16,G9U A15G A20G A35U,0.19
17,G9U A15G A28U,0.09
18,G9U A15G A45G G52A,0.05
19,G9U A15G C29U A35U A57U U80A,0.12
20,G9U A15G U25C A28U U48C,0.22
21,G9U A15G U26A U74C,0.31
22,G9U A15G U26C A56G A65G U66C U78A,0.04
23,G9U A15G U41C A56C U72C A77G,0.19
24,G9U A15G U60C U67C U72C U78C,0.06

row,Variant,self-cleavage
1,G9U A15U A20G A75G A77G,0.04
2,G9U A15U A35C,0.13
3,G9U A15U C29U U54A A56G A57U,0.04
4,G9U A15U U26G U69A,0.13
5,G9U A15U U48C U51C A56U U67C,0.06
6,G9U A15U U54C,0.16
7,G9U A15U U78A,0.15
8,G9U A18G A56G U78C,0.07
9,G9U A18G A56U U74C,0.17
10,G9U A18G A57G A65G U76C U80C,0.04
11,G9U A18G A65G U66A G73A,0.03
12,G9U A18G A65U,0.19
13,G9U A18G G36A U43A,0.18
14,G9U A18G U25C U31C U51A C68G,0.12
15,G9U A18G U25C U48C,0.25
16,G9U A18G U51C A57U U80A,0.17
17,G9U A18G U60C U67C,0.04
18,G9U A18U A20G A35U G53A U60C,0.05
19,G9U A18U A28G C39U A47G U80C,0.04
20,G9U A18U A35U G63U U76C,0.04
21,G9U A18U A45G,0.44
22,G9U A18U A47G U48C U66C A75U C81U,0.04
23,G9U A18U U25C A28U,0.04
24,G9U A18U U25C A75U U80C,0.23

row,Variant,self-cleavage
1,G9U A18U U25C U26C A56G,0.05
2,G9U A18U U25C U41G U66A U72A U78C,0.09
3,G9U A18U U31A A45U U58C U78C,0.12
4,G9U A20G A28G,0.04
5,G9U A20G A45G U54A U80A,0.18
6,G9U A20G A47G U51A U54G,0.04
7,G9U A20G C44U U76A A77U,0.03
8,G9U A20G G24U A75U U78C,0.21
9,G9U A20G U25C U26C C68U,0.33
10,G9U A20G U25C U54C A64G U69G,0.06
11,G9U A20G U54A U80A,0.34
12,G9U A20U A56G,0.06
13,G9U A20U C27U C62U,0.04
14,G9U A20U C50U U80A,0.13
15,G9U A20U U26C,0.19
16,G9U A20U U41C G52A U67A U76A,0.12
17,G9U A21C G30A A35U U41C U43C,0.04
18,G9U A21G A28G G30A A35G A64G,0.05
19,G9U A21G A28G U67G U76G,0.05
20,G9U A21G A35G U51A A57G U66C U67C,0.05
21,G9U A21G C38U U54G,0.06
22,G9U A21G G30U,0.08
23,G9U A21G U31C A45G U60C,0.07
24,G9U A21G U31C A64U U74C,0.04

row,Variant,self-cleavage
1,G9U A21G U31C G36C U51C,0.03
2,G9U A21U G24A U43C U74G U80C,0.03
3,G9U A28G A35G A56G U66C,0.11
4,G9U A28G A35U U60C U66C,0.05
5,G9U A28G A57G,0.06
6,G9U A28G C32U U41C A56G,0.21
7,G9U A28G C71A U72A,0.05
8,G9U A28G G36C,0.13
9,G9U A28G G63U,0.16
10,G9U A28G U49C,0.15
11,G9U A28G U51A U67A A75G,0.12
12,G9U A28U A47C U51C U67A U69A,0.04
13,G9U A28U C32G U66A,0.04
14,G9U A28U U78C,0.17
15,G9U A35G A45U A57G U60C U67C,0.05
16,G9U A35G U43C U80C,0.53
17,G9U A35G U51C,0.24
18,G9U A35U A56G A75U U80C,0.1
19,G9U A35U U41A U80C,0.35
20,G9U A35U U48C U67C A75G,0.09
21,G9U A35U U54C,0.16
22,G9U A35U U60A A77G U78A,0.04
23,G9U A45G A56G,0.33
24,G9U A45G A57G,0.07

row,Variant,self-cleavage
1,G9U A56G U69C,0.06
2,G9U A56G U80C,0.14
3,G9U A56U U80C,0.18
4,G9U A57G U69A,0.05
5,G9U A65G U74C U78C,0.13
6,G9U C11G G61A,0.32
7,G9U C11U A18G,0.35
8,G9U C11U A20G U51A A64G U69C,0.13
9,G9U C11U C27G U60C U72G,0.04
10,G9U C11U U51A U69C,0.11
11,G9U C11U U51C U60C A65G A77U,0.04
12,G9U C12A C44A U49C A56G U60A,0.06
13,G9U C12U A13G U26C A35G C39U A65U,0.04
14,G9U C12U U67C,0.05
15,G9U C14U A35G C40A A57G U74G,0.07
16,G9U C27U U60A,0.05
17,G9U C29G U41C U48C U69C U72C,0.04
18,G9U C29U A56U A57G,0.1
19,G9U C29U U66C U72C,0.06
20,G9U C32U C37G U51C G52U C62G,0.06
21,G9U C34G A45G C68G,0.04
22,G9U C37G G63U U66A,0.15
23,G9U C37U U41C A45U U49C A56U,0.04
24,G9U C38A A47U A56C,0.06

row,Variant,self-cleavage
1,G9U C38A U54A U58C U60C,0.12
2,G9U C38U U78C,0.2
3,G9U C40U U43A U49C,0.05
4,G9U C40U U51C G52A U67C U69C U72G,0.03
5,G9U C50U A56G,0.13
6,G9U C50U A64U,0.06
7,G9U C59U U76C U78C,0.08
8,G9U G10A A21U G42A A47G U67A,0.04
9,G9U G10A C12U A35G A45G C50A U58A,0.16
10,G9U G10A U31C A56U A57G,0
11,G9U G16A A35G A56G U72C,0.27
12,G9U G16A U43G U49A U51C,0.04
13,G9U G19A U49C A56G U69C A75G U78A,0.03
14,G9U G19U A64U,0.11
15,G9U G24A C62U U72C U78A,0.04
16,G9U G24A U43C,0.08
17,G9U G24U U60C,0.11
18,G9U G30A C44A U66A,0.03
19,G9U G30A U41A U76C,0.05
20,G9U G30A U41C C62A U69C,0.07
21,G9U G30C U69C,0.08
22,G9U G30U U54A U58C,0.06
23,G9U G33A U48C A56G U60A,0.04
